Source: the supplement of paper PMC8728848
This is one part of the list.

Experiments:
Test in all cases: glycan array binding signal (z-score within array); higher = stronger binding
Conditions in all cases: glycan notation: IUPAC condensed, linker removed
[1] = biological target: Man(a1-2)Man(a1-2)Man(a1-3)Man
Method in brief: (§1)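 The binding signal is a Z-score computed within each array and averaged over linkers. Arrays of the same protein sequence at different concentrations or buffers were also averaged together. Data originate from 3228 arrays in the Consortium for Functional Glycomics database, kept only where the protein sequence was available.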

[2] = biological target: Man(a1-2)Man(a1-2)Man(a1-6)[Man(a1-3)]Man
Method in brief: as §1

Man(a1-2)Man(a1-3)Man = biological target: Man(a1-2)Man(a1-3)Man
Method in brief: as §1

[3] = biological target: Man(a1-2)Man(a1-3)[Man(a1-2)Man(a1-6)]Man
Method in brief: as §1

[4] = biological target: Man(a1-2)Man(a1-3)[Man(a1-2)Man(a1-6)]Man(a1-6)[Man(a1-2)Man(a1-2)Man(a1-3)]Man(b1-4)GlcNAc(b1-4)GlcNAc
Method in brief: as §1

[5] = biological target: Man(a1-2)Man(a1-3)[Man(a1-6)]Man(a1-6)[Man(a1-2)Man(a1-3)]Man(b1-4)GlcNAc(b1-4)GlcNAc
Method in brief: as §1

[6] = biological target: Man(a1-2)Man(a1-6)[Man(a1-3)]Man(a1-6)[Man(a1-2)Man(a1-2)Man(a1-3)]Man(b1-4)GlcNAc(b1-4)GlcNAc
Method in brief: as §1

Man(a1-3)[Man(a1-6)]Man = biological target: Man(a1-3)[Man(a1-6)]Man
Method in brief: as §1

[7] = biological target: Man(a1-3)[Man(a1-6)]Man(a1-6)[Man(a1-2)Man(a1-3)]Man(b1-4)GlcNAc(b1-4)GlcNAc
Method in brief: as §1

[8] = biological target: Man(a1-3)[Man(a1-6)]Man(a1-6)[Man(a1-3)]Man(b1-4)GlcNAc(b1-4)GlcNAc
Method in brief: as §1

[9] = biological target: Man(a1-3)[Man(a1-6)]Man(b1-4)GlcNAc(b1-4)GlcNAc
Method in brief: as §1

Man(b1-4)GlcNAc = biological target: Man(b1-4)GlcNAc
Method in brief: as §1

Neu5Ac(a2-3)Gal = biological target: Neu5Ac(a2-3)Gal
Method in brief: as §1

[10] = biological target: Neu5Ac(a2-3)Gal(b1-3)GalNAc
Method in brief: as §1

[11] = biological target: Neu5Ac(a2-3)Gal(b1-3)GalNAc(b1-3)Gal(a1-4)Gal(b1-4)Glc
Method in brief: as §1

[12] = biological target: Neu5Ac(a2-3)Gal(b1-3)GalNAc(b1-3)Gal(b1-4)GlcNAc
Method in brief: as §1

[13] = biological target: Neu5Ac(a2-3)Gal(b1-3)GalNAc(b1-4)[Neu5Ac(a2-3)]Gal(b1-4)Glc
Method in brief: as §1

[14] = biological target: Neu5Ac(a2-3)Gal(b1-3)GalNAc6S
Method in brief: as §1

[15] = biological target: Neu5Ac(a2-3)Gal(b1-3)GlcNAc
Method in brief: as §1

[16] = biological target: Neu5Ac(a2-3)Gal(b1-3)GlcNAc6S
Method in brief: as §1

[17] = biological target: Neu5Ac(a2-3)Gal(b1-3)[Fuc(a1-4)]GlcNAc
Method in brief: as §1

[18] = biological target: Neu5Ac(a2-3)Gal(b1-3)[Fuc(a1-4)]GlcNAc(b1-3)Gal(b1-4)[Fuc(a1-3)]GlcNAc
Method in brief: as §1

[19] = biological target: Neu5Ac(a2-3)Gal(b1-3)[Neu5Ac(a2-3)Gal(b1-4)]GlcNAc
Method in brief: as §1

[20] = biological target: Neu5Ac(a2-3)Gal(b1-3)[Neu5Ac(a2-6)]GalNAc
Method in brief: as §1

Neu5Ac(a2-3)Gal(b1-4)Glc = biological target: Neu5Ac(a2-3)Gal(b1-4)Glc
Method in brief: as §1

[21] = biological target: Neu5Ac(a2-3)Gal(b1-4)GlcNAc
Method in brief: as §1

[22] = biological target: Neu5Ac(a2-3)Gal(b1-4)GlcNAc(b1-2)Man(a1-3)[Neu5Ac(a2-3)Gal(b1-4)GlcNAc(b1-2)Man(a1-6)]Man(b1-4)GlcNAc(b1-4)GlcNAc
Method in brief: as §1

[23] = biological target: Neu5Ac(a2-3)Gal(b1-4)GlcNAc(b1-3)Gal(b1-4)GlcNAc
Method in brief: as §1

[24] = biological target: Neu5Ac(a2-3)Gal(b1-4)GlcNAc(b1-3)Gal(b1-4)GlcNAc(b1-3)Gal(b1-4)GlcNAc
Method in brief: as §1

[25] = biological target: Neu5Ac(a2-3)Gal(b1-4)GlcNAc(b1-3)Gal(b1-4)[Fuc(a1-3)]GlcNAc
Method in brief: as §1

[26] = biological target: Neu5Ac(a2-3)Gal(b1-4)GlcNAc6S
Method in brief: as §1

[27] = biological target: Neu5Ac(a2-3)Gal(b1-4)[Fuc(a1-3)]GlcNAc
Method in brief: as §1

[28] = biological target: Neu5Ac(a2-3)Gal(b1-4)[Fuc(a1-3)]GlcNAc(b1-3)Gal
Method in brief: as §1

[29] = biological target: Neu5Ac(a2-3)Gal(b1-4)[Fuc(a1-3)]GlcNAc(b1-3)Gal(b1-4)GlcNAc
Method in brief: as §1

B1: FaeGad (Escherichia coli) (protein)
chain: WMTGDFNGSVDIGGSITADDYRQKWEWEVGTGLNGFGSVLNDLTNGGTKLTITVTGNKPILLGRTKEAFATPVTSGVDGIPHIAFTDYEGASVELRNPDGETEKGLTYFVLPMKNAEGTKVGSVKVNASYAGALGRGGVTSADGELMSLFAEGSHAIFYGGLPTNVKNSELKGGSAAAARTELFGSLSKNDILGQIQRVNANITSLVNVPGSFNENMAYTDGSVVSVAYALGIANGQTIEATFNQAVTTSTQWSAPLNVAITYY
- glycan array binding signal (z-score) [1]: 0.369
- glycan array binding signal (z-score) [2]: 1.83
- glycan array binding signal (z-score) (Man(a1-2)Man(a1-3)Man): -0.083
- glycan array binding signal (z-score) [3]: 1.23
- glycan array binding signal (z-score) [4]: 0.703
- glycan array binding signal (z-score) [5]: 1
- glycan array binding signal (z-score) [6]: 1.15
- glycan array binding signal (z-score) (Man(a1-3)[Man(a1-6)]Man): -0.081
- glycan array binding signal (z-score) [7]: 0.242
- glycan array binding signal (z-score) [8]: -0.243
- glycan array binding signal (z-score) [9]: -0.288
- glycan array binding signal (z-score) (Man(b1-4)GlcNAc): -0.261
- glycan array binding signal (z-score) (Neu5Ac(a2-3)Gal): -0.511
- glycan array binding signal (z-score) [10]: -0.426
- glycan array binding signal (z-score) [11]: -0.345
- glycan array binding signal (z-score) [12]: -0.464
- glycan array binding signal (z-score) [13]: -0.416
- glycan array binding signal (z-score) [14]: -0.422
- glycan array binding signal (z-score) [15]: -0.456
- glycan array binding signal (z-score) [16]: -0.205
- glycan array binding signal (z-score) [17]: -0.412
- glycan array binding signal (z-score) [18]: 0.8
- glycan array binding signal (z-score) [19]: -0.501
- glycan array binding signal (z-score) [20]: -0.385
- glycan array binding signal (z-score) (Neu5Ac(a2-3)Gal(b1-4)Glc): -0.389
- glycan array binding signal (z-score) [21]: -0.386
- glycan array binding signal (z-score) [22]: -0.026
- glycan array binding signal (z-score) [23]: -0.466
- glycan array binding signal (z-score) [24]: -0.49
- glycan array binding signal (z-score) [25]: 0.139
- glycan array binding signal (z-score) [26]: -0.426
- glycan array binding signal (z-score) [27]: -0.45
- glycan array binding signal (z-score) [28]: -0.324
- glycan array binding signal (z-score) [29]: -0.35
